# Assay results from PubChem BioAssay AID624171 (National Center for Advancing Translational Sciences (NCATS), 2012).
# Among all 410,000 compounds or so, about 1,200 (0.29%) were called active. Inconclusive results, whose numbers are uncertain, are shown with a selection of clear calls. Calls come from the whole dose curve; as a rule, active = well fitted activation curve with a large enough effect; inconclusive = small, poorly fitted or top-dose-only effect; inactive = flat fitted curve, though single readings scatter. A potency beside an inconclusive call is a rough fit, not a confirmed value.
# Experiment: qHTS of Nrf2 Activators; note: nearly all actives have a fitted effect of over 65% in size; for activation: % of control where 0% means no effect
# Settings: AREc32 ARE-luciferase reporter (MCF7-derived line), luminescence, 24 h; activation: at 46.1 µM (top of the series)
# Method in brief: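 Luminescent ARE reporter assay in AREc32_Fluc cells: overnight plating at 37 deg C, 24 hr compound incubation, Steady-Glo added, 30 min RT before reading.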
# Potency is the fitted concentration of half-maximal effect; tags give direction and shape of the fitted curve.
SMILES,Potency,activation
OCc1ccccc1SSc1ccccc1CO,"inconclusive: 35.5 µM [activator, single point]",–
Cc1ccc(-c2csc(N3CCC[C@@H]3C(=O)NCCn3c(-c4ccncc4)nc4ccccc43)n2)cc1,–,inactive: -0.637%
CC(=O)c1ccc(NC(=O)COC(=O)c2ccccc2N=Nc2ccc(N(C)C)cc2)cc1,"inconclusive: 14.1 µM [activator, partial curve, poor fit]",–
COc1ccccc1N1CCN(/N=C\C(Br)=C\c2ccccc2)CC1,"inconclusive: 28.2 µM [activator, single point]",–
COc1cccc(CNC(=O)c2ccc(-n3c(C)cc4c3CCC(C)C4)cc2)c1 (stereo not drawn),"inconclusive: 25.1 µM [activator, single point]",–
CCOc1cc(/C=C2\C(=O)N(Cc3ccc(C)cc3)C(C)=C2C(=O)OC)ccc1O,"inconclusive: 35.5 µM [activator, single point]",–
CCOc1cc(/C=C2\C(=O)N(Cc3ccco3)C(C)=C2C(=O)OC)ccc1O,"inconclusive: 25.1 µM [activator, single point]",–
CCOc1ccc(NC(=O)c2ncoc2-c2ccco2)cc1,"inconclusive: 11.2 µM [activator, partial curve]",–
CN(C)c1ccc(NC2=C(Cl)C(=O)c3ccccc3C2=O)cc1,"inconclusive: 3.16 µM [activator, partial curve, poor fit]",–
Cc1ccc(N/C=C/C(=O)c2cccs2)cc1,"inconclusive: 6.31 µM [activator, partial curve]",–
CCOC(=O)/C=C/C(=O)Nc1ccccc1-c1ccccc1NC(=O)/C=C/C(=O)OCC,"inconclusive: 3.55 µM [activator, single point]",–
Cc1nc2nc(-c3ccco3)nn2c(C)c1Cl,"inconclusive: 0.631 µM [activator, full curve, poor fit]",–
N=C1/C(=C/c2coc3ccccc3c2=O)C(=O)N=C2SC(c3ccco3)=NN12,"inconclusive: 3.55 µM [activator, single point]",–
CCOc1cc(C2c3c(n[nH]c3C)C(=O)N2c2ccc(Br)cc2)ccc1O (stereo not drawn),"inconclusive: 22.4 µM [activator, single point]",–
Clc1ccc(-c2cn3cc(Br)ccc3n2)cc1Cl,"inconclusive: 8.91 µM [activator, partial curve, poor fit]",–
O=C(Nc1nc(-c2ccccn2)cs1)c1ccc([N+](=O)[O-])o1,active: 11.2 µM,–
CCC1c2ccc(C)n2CCN1C(=O)Nc1ccccc1C(=O)OC (stereo not drawn),–,inactive: -0.743%
Cc1nc2ccccc2c(=O)n1/N=C/c1ccco1,"inconclusive: 20 µM [activator, single point]",–
Cc1ccccc1C(=O)Nc1ccccc1C(=O)N/N=C\c1ccco1,"inconclusive: 11.2 µM [activator, partial curve, poor fit]",–
C/C=C/C=C\C(=O)Nc1cccc(C2=NOC3(C2)C[C@@H](C(N)=O)N(C(=O)c2cc([N+](=O)[O-])cc([N+](=O)[O-])c2C)C3)c1 (stereo partly drawn),–,inactive: -0.581%
Cc1ccccc1/C(N)=N/OC(=O)c1cccs1,"inconclusive: 17.8 µM [activator, partial curve, poor fit]",–
O=C(NCCCO)c1ccc2nc(-c3ccco3)c(-c3ccco3)nc2c1,"inconclusive: 11.2 µM [activator, partial curve, poor fit]",–

SMILES,Potency,activation
Cc1ccc(NC(=O)/C(C#N)=C/c2ccsc2)c(C)c1,"inconclusive: 22.4 µM [activator, single point]",–
COC(=O)C1=C(C)N(c2cccc3ccccc23)C(=O)C1,"inconclusive: 31.6 µM [activator, single point]",–
CN(C)/C=N/c1c(C#N)cnn1-c1ncnc2sc(-c3ccccc3)cc12,"inconclusive: 17.8 µM [activator, partial curve, poor fit]",–
Cc1ccccc1NC(=O)c1ccc([N+](=O)[O-])o1,"inconclusive: 11.2 µM [activator, partial curve]",–
Cc1ccc(-c2nc(C=Nc3ccc(O)cc3)c(O)o2)cc1,active: 6.31 µM,–
Cc1[nH]n(C)c(=O)c1C(=O)c1c(-c2ccccc2Cl)noc1C,"inconclusive: 25.1 µM [activator, single point]",–
CN(CC(=O)Nc1ccc(F)c(F)c1F)C(=O)/C=C/c1ccco1,active: 12.6 µM,–
CC(=O)/C(=C/c1ccccc1)C(=O)Nc1ccccc1C,"inconclusive: 25.1 µM [activator, single point]",–
O=C(CSc1ccc(-c2ccco2)nn1)N1CCCCCC1,"inconclusive: 7.08 µM [activator, partial curve, poor fit]",–
COCCNc1ccc(-c2nc(-c3ccco3)no2)cc1[N+](=O)[O-],"inconclusive: 1.41 µM [activator, full curve, poor fit]",–
Cc1cc(NC(=O)CSc2nc(C3CCCCC3)nc3ccccc23)no1,"inconclusive: 17.8 µM [activator, single point]",–
Cc1cc(C)cc(C(O)c2ncc(-c3cccc(C(F)(F)F)c3)[nH]2)c1 (stereo not drawn),–,inactive: -0.787%
Cc1cc(C)nc(NC(=NCCc2c[nH]c3ccc(Cl)cc23)NC(=O)c2ccccc2C)n1,–,inactive: -0.125%
CCOC(=O)/C=C/c1ccc2c(c1)S(=O)(=O)N(Cc1ccc(OC)cc1)[C@H]2CC(=O)OCC,"inconclusive: 17.8 µM [activator, single point]",–
CCCCCOC(=O)C1C(c2ccccc2)C(C(=O)O)C1c1ccccc1 (stereo not drawn),–,inactive: -0.492%
COn1c2c(c3c4nonc4ccc31)CCCC2,"inconclusive: 11.2 µM [activator, partial curve]",–
Cc1cc(C)nc(/N=C(\N)Nc2cccc(OCc3ccccc3)c2)n1,–,inactive: -1.97%
c1ccc(OCc2nc(-c3cccs3)no2)cc1,"inconclusive: 17.8 µM [activator, single point]",–
CCC1Oc2ccc(C)cc2N(CC(=O)NCc2ccc(OC)cc2)C1=O (stereo not drawn),–,inactive: 0.649%
c1ccc2c(c1)CCN(c1nc3ccccc3n3cnnc13)C2,active: 12.6 µM,–
O=C1c2nc3cc(-c4ccco4)[nH]n3c(=O)c2CN1C1CCCCC1,"inconclusive: 2.51 µM [activator, partial curve, poor fit]",–
